Consider 51 molecules from publication PMC6919601, “Identification of Plasmodium dipeptidyl aminopeptidase allosteric inhibitors by high throughput screening” (PLoS ONE, 2019).

The campaign covered roughly 110,000 compounds. About 230 (0.21%) showed an effect of 50% or more. The list shows a part of the results.
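Also: 30 min substrate incubation versus DMSO and 10 µM JCP410 controls.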

The target of the assay is DPAP1 (Plasmodium falciparum, UniProt Q8IIJ9). Put plainly: primary screen, percent inhibition; read by cleavage of a fluorogenic dipeptide substrate; higher = more effect of the substance. Also noted: species or system P. falciparum D10 trophozoite lysates; single well.
Chain of DPAP1 (Q8IIJ9 whole entry, looked up): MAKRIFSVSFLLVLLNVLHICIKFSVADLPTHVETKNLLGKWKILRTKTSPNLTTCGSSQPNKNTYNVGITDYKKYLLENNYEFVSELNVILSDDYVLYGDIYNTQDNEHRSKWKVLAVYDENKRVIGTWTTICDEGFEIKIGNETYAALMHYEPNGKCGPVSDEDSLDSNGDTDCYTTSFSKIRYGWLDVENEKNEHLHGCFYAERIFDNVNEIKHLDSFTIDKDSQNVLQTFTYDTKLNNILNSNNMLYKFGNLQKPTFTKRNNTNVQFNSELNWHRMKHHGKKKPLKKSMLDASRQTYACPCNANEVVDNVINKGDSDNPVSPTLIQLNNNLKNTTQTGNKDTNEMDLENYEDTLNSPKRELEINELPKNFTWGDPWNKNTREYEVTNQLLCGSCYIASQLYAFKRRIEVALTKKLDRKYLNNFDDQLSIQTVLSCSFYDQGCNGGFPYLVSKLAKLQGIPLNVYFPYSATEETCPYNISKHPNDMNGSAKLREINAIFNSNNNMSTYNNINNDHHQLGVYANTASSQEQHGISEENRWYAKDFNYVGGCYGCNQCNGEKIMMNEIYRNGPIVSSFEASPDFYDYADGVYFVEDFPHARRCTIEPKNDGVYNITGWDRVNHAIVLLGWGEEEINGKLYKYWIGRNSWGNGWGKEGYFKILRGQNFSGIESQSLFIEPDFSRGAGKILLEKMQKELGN
On to `C=CCNC(=O)C(C)N1C(=O)c2ccccc2C1=O` (stereo not drawn), for which the “% Inhibition @ 10 uM” value was -4.12%. With `COc1ccc(C(=N)NOC(=O)Cc2ccc(Cl)cc2)cc1OC` the figure was -5.08%; with `CCOc1cccc(=O)c2c(C)oc(C)c12`, 0.162%; with `Cc1ccccc1N/C=C1/C(=O)NC(=O)N(c2ccc(Cl)cc2)C1=O`, -8.63%. Under `OCCN1CCN(c2ncnc3ccc(Br)cc23)CC1` stands 0.67%; under `CCOc1ccc(CCN2CNc3c(c(=O)n(C)c(=O)n3C)C2)cc1`, 2.34%. With `Cc1[nH]cnc1CN1CCCCCCC1` the figure was -1.64%. Regarding `C=CCOC(=O)C1=C(C)N=C(C)/C(=C(/O)OCC=C)C1c1ccc(OC)c(OC)c1` (stereo not drawn), the “% Inhibition @ 10 uM” value is on record as -1.93%.

For `Cc1ccc(C)c(CN2CCC(CN3CNc4c(c(=O)n(C)c(=O)n4C)C3)CC2)c1`, the “% Inhibition @ 10 uM” value is on record as -4.74%. In the case of `CC(=O)Nc1cccc(NC(=O)c2cccc(Br)c2)c1`, the “% Inhibition @ 10 uM” value is 6.25%. As to `Cn1c(=O)c2nc(NC3CCCC3)[nH]c2n(C)c1=O`, the “% Inhibition @ 10 uM” value is recorded as -1.18%. Under `Cc1ccc(C(C(=O)NCc2ccccc2)N(Cc2ccco2)C(=O)Cn2nnc3ccccc32)cc1` (stereo not drawn) stands 5.29%; under `CC1CN(C2CCN(Cc3ccccc3)CC2)CC(C)O1` (stereo not drawn), 3.19%; under `CCOC(=O)c1ccc(NC(=O)C(F)(OC)C(F)(F)F)cc1` (stereo not drawn), -0.0619%. `Cc1cc(C)c(C#N)c(SCc2cc3c(cc2Cl)OCO3)n1`: the “% Inhibition @ 10 uM” value was -4.76%. As for `CC1=C(c2ccc(C(C)C)cc2)S(=O)(=O)N=C1NCCCc1ccccc1`, the “% Inhibition @ 10 uM” value was 5.42%. With `O=c1cc(C2Nc3ccccc3N=C3CC(c4cccs4)CC(O)=C32)oc2ccccc12` (stereo not drawn) the figure was -2.88%; with `CCN(C(=O)COc1ccc(Br)c(C)c1)c1ccccc1`, -5.29%; with `CC1CN(c2ncnc3sc4c(c23)CCCCC4)CC(C)O1` (stereo not drawn), -2.32%. Under `CCOC(=O)c1c(NC(=O)CN2C(=O)S/C(=C\c3ccc(F)cc3)C2=O)sc2c1CCCC2` stands -2.27%; under `CCCCCN1CCN(c2nc(-c3ccccc3)c3cc(C)ccc3n2)CC1`, -1.99%. Regarding `CCOC(=O)c1nc(Cn2c(C(F)(F)F)nc3ccccc32)no1`, the “% Inhibition @ 10 uM” value was -0.92%. On to `O=C(CCCn1c(=O)c2cccn2c2cccnc21)NCCc1ccccc1Cl`, for which the “% Inhibition @ 10 uM” value amounted to 1.63%. With `Cc1ccccc1CNCc1cccn1-c1nnc(N2CCC(C(=O)O)CC2)s1`, the “% Inhibition @ 10 uM” value is on record as -2.53%.

For `Cc1nc(N2CCCCC2)c(C#N)c(C)c1Cl`, the “% Inhibition @ 10 uM” value turned out to be 3.81%. For `COc1cccc(Nc2nc(NCCO)c3ccccc3n2)c1`, the “% Inhibition @ 10 uM” value was -3.65%. With `O=C(NCc1ccco1)C1CCCN(S(=O)(=O)N2CCC3(CC2)OCCO3)C1` (stereo not drawn) the figure was 2.54%. With `Oc1nc(Cc2ccccc2Cl)nc2c1nnn2Cn1nnc(-c2ccccc2)n1` the figure was -3.24%. On to `COc1cc(S(=O)(=O)N2CCC3(CC2)OCCO3)ccc1-n1cnnn1`, for which the “% Inhibition @ 10 uM” value worked out at 1%. On to `COc1ccc(C2=NN(C(=O)CSCc3ccco3)C(c3cccc(OC)c3OC)C2)cc1` (stereo not drawn), for which the “% Inhibition @ 10 uM” value is on record as -7.08%. Under `Cc1ccc(S(=O)(=O)N(c2ccccc2)C(C)C2CC2)cc1` (stereo not drawn) stands 2.22%; under `CN(CC(=O)N1CCN(Cc2ccccc2)CC1)S(=O)(=O)c1c[nH]cn1`, -0.0309%; under `O=C(Nc1ccccc1)c1cc(S(=O)(=O)Nc2cccnc2)ccc1Cl`, 5.73%. With `CC12CCCc3c(O)cc(=O)n(c31)-c1ccccc12` (stereo not drawn) the figure was 0.722%; with `CCOC(=O)C1CCCN(Cc2ccsc2)C1` (stereo not drawn), 0.708%; with `NC(=O)c1c(NC(=O)c2ccccc2Cl)sc2c1CCCC2`, -2.78%. For the molecule `CCOc1ccccc1-n1cc2c(c1-c1ccccc1)c(=O)n(C)c(=O)n2C`, the “% Inhibition @ 10 uM” value is on record as -6.85%. With `COc1ccc(O)c(C2=NN3C(C2)c2cccc(OC)c2OC32CCCC2)c1` (stereo not drawn), the “% Inhibition @ 10 uM” value is listed as 0.0719%. As for `Oc1ccc(-c2[nH]ncc2Oc2ccccc2)c(O)c1`, the “% Inhibition @ 10 uM” value is 0.687%. With `COc1ccc(NS(=O)(=O)c2cc(C(=O)O)c(Cl)cc2Cl)cc1`, the “% Inhibition @ 10 uM” value is listed as 0.361%. Under `Cc1ccc2c(CNCc3cccc(F)c3)c(C(=O)O)n(Cc3ccccc3F)c2c1` stands 5.45%; under `Cc1nn2c(c1-c1cccc(Cl)c1)NCN(Cc1ccc(F)cc1)C2`, -1.08%. For the molecule `CCOC(=O)N1CCN(C2CCCCCC2)CC1`, the “% Inhibition @ 10 uM” value is on record as 1.88%.

For the molecule `COc1cc2c(cc1OC)C(COc1ccccc1OC)N(C(=O)C1CC1)CC2` (stereo not drawn), the “% Inhibition @ 10 uM” value is listed as -4.64%. With `Cc1ccc(C(=O)C2=C(O)C(=O)N(c3ncccn3)C2c2ccc(Cl)c(Cl)c2)o1` (stereo not drawn), the “% Inhibition @ 10 uM” value came out at 2.55%. As to `O=C(Nc1ccc2c(c1)OCO2)C1CC2CCC1C2` (stereo not drawn), the “% Inhibition @ 10 uM” value stood at 3.48%. On to `Cc1nn(Cc2ccccc2Cl)c(C)c1NC(=O)NC12CC3CC(CC(C3)C1)C2`, for which the “% Inhibition @ 10 uM” value is -13.5%.

Take `Cc1cc2c(cc1C)N(Cc1ccccc1)C1=NCCN12`: the “% Inhibition @ 10 uM” value stood at 5.2%. In the case of `O=C(NC1CCN(Cc2ccccc2)CC1)c1cc(-c2ccccc2)[nH]n1`, the “% Inhibition @ 10 uM” value is reported as -3.12%.

On to `COc1ccc(N(CC(=O)NCc2ccncc2)S(=O)(=O)c2ccccc2)cc1Cl`, for which the “% Inhibition @ 10 uM” value is -0.312%. With `O=C(Cn1cnc2c(nc3n2CCCCC3)c1=O)NCc1ccco1` the figure was 0.721%.
